Experimental data reported in publication PMC7819943, “Rice protein-binding microarrays: a tool to detect cis-acting elements near promoter regions in rice”.
This is one part of the list.

Target: T1, OsWOX13 (Oryza sativa, UniProt Q5QMM3 1-267)
T1 sequence: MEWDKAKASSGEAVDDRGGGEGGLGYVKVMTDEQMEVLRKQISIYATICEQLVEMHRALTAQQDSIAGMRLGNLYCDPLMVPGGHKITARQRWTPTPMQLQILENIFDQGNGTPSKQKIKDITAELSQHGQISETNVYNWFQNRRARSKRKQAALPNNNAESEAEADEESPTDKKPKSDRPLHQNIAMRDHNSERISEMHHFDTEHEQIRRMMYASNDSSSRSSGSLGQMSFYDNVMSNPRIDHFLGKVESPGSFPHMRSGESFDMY
Assay: protein-binding microarray (RPBM); PBS, 2% BSA, 51.3 ng/ul salmon testes DNA, 50 uM zinc acetate, 200 nM TF, 25 C, 1 h; high values mean tight binding
Settings: protein: recombinant; tags: N-terminal polyhistidine and DsRed monomer fusion (pET32a); label: CyDye5-dUTP incorporated in the synthesized complementary strand; 3' TTTTT single-stranded linker to array surface; dsDNA, one strand shown
Summary of the method: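 Transcription factors were each fused at the N-terminus to a polyhistidine tag plus DsRed and expressed in E. coli BL21-CodonPlus before Ni–NTA purification. Binding to a double-stranded custom Agilent array was carried out with 200 nM protein at 25 °C for 1 h in PBS, 2% BSA, salmon testes DNA and 50 µM zinc acetate. The binding signal is per-feature fluorescence intensity, in arbitrary units, on an Axon 4000B scanner.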

First: GGAATTGACGCACGAAAATTTTGTGACGAAAGGAAAATTTCGGAGTCACCTAGTGCAG
Second: CATAACAAAATTTTAAACACCACTAAATAAGATACTCGCGCGGAGTCACCTAGTGCAG
The binding signal of the first is lower: 3800 fluorescence intensity (a.u.) for the first, 5230 fluorescence intensity (a.u.) for the second.

Going from “GGGATGATTTTGTAACTCGATAACAAGTTGAGGGACCTTTCGGAGTCACCTAGTGCAG” to “CCTGACAGGTCATCTCCTGATTGAAACCAAAATGTTGGATCGGAGTCACCTAGTGCAG”, the binding signal rises from 17200 fluorescence intensity (a.u.) to 60700 fluorescence intensity (a.u.).

Compared with “TCTGACATAATGTTCATTCGAAGGAAAATATTTTCTTCCTCGGAGTCACCTAGTGCAG”, “CATGTGCTAATGACAGGTTAATTAGGCTCAAAAGATTCATCGGAGTCACCTAGTGCAG” is higher in binding signal: 8340 fluorescence intensity (a.u.) for the first, 12600 fluorescence intensity (a.u.) for the second.

Going from “CTTCTAATTGTTAAGTAGATGGTCGTTGTCATTGATTCTTCGGAGTCACCTAGTGCAG” to “CGTAATAATGAATTGAATGCAGAGTTTGGTCAAAGAAAAGCGGAGTCACCTAGTGCAG”, the binding signal falls from 15100 fluorescence intensity (a.u.) to 6400 fluorescence intensity (a.u.).

Compared with “TCCTCGATTGATCCGTTTCTTTATATACACACAGTACAACCGGAGTCACCTAGTGCAG”, “TCAAATTGAAATTTTAGTACTTAATTAGGATCAATATACACGGAGTCACCTAGTGCAG” is higher in binding signal: 9160 fluorescence intensity (a.u.) for the first, 30800 fluorescence intensity (a.u.) for the second.

Compared with “TACTTATCAACCAAAATTTAAATTTTCAACCTTAAATTTACGGAGTCACCTAGTGCAG”, “ATTACCGATACTGACAATTATCAATACCGACTGAAACGGTCGGAGTCACCTAGTGCAG” is lower in binding signal: 6860 fluorescence intensity (a.u.) for the first, 4280 fluorescence intensity (a.u.) for the second.

First: ATTACATTGACTAATAGATGATTTAGAGCTAATAGTGGGCCGGAGTCACCTAGTGCAG
Second: AAGGCAAATTGACGGTACAAAGTTCAACACGCTAATTAGTCGGAGTCACCTAGTGCAG
The binding signal of the first is lower: 25200 fluorescence intensity (a.u.) for the first, 31900 fluorescence intensity (a.u.) for the second.

Going from “TCCAATCATTTTGTGTCTTGTAGGTGATCCATTCTTTCTTCGGAGTCACCTAGTGCAG” to “AATATATCCAATTATTGATTTGATTAAACTAATTTAGTATCGGAGTCACCTAGTGCAG”, the binding signal rises from 7000 fluorescence intensity (a.u.) to 41900 fluorescence intensity (a.u.).

Going from “TGACTTGATTTAACATCAAGGGCCTATTCAGATTATAGAACGGAGTCACCTAGTGCAG” to “ACTAATAATTGGCCTTAATCAGCTAGTACAATTCTATCACCGGAGTCACCTAGTGCAG”, the binding signal rises from 19500 fluorescence intensity (a.u.) to 26800 fluorescence intensity (a.u.).

Going from “CCACAAATTTCGGTCAAACTAATTACATAGTATTAATATCCGGAGTCACCTAGTGCAG” to “TTATAATTACTACATTATAATAAAAGTAAAATTGTATTTACGGAGTCACCTAGTGCAG”, the binding signal rises from 4360 fluorescence intensity (a.u.) to 12100 fluorescence intensity (a.u.).

Compared with “ATAGATTTGAATAGATCTTTCTTCATATTTATATAGTATCCGGAGTCACCTAGTGCAG”, “TTTGGTTCATATCATAATTATGGCTCGTCACATTTCCTCTCGGAGTCACCTAGTGCAG” is higher in binding signal: 5170 fluorescence intensity (a.u.) for the first, 8410 fluorescence intensity (a.u.) for the second.

Going from “ATGCTGCAATTAATTGAGGAGGAAAGCTCCCATTAGCAATCGGAGTCACCTAGTGCAG” to “GTTAATTTGTCAAATTTCATGCGAGAGAGAGAGAGAGAGACGGAGTCACCTAGTGCAG”, the binding signal falls from 19200 fluorescence intensity (a.u.) to 16800 fluorescence intensity (a.u.).

Compared with “GAAGTCAAATTTAGCCAATCTCTGGGAGAGATTATTATTTCGGAGTCACCTAGTGCAG”, “CCATTCATCATCACGTGCAATTAACCAACCCATCCGCGCCCGGAGTCACCTAGTGCAG” is higher in binding signal: 4490 fluorescence intensity (a.u.) for the first, 8540 fluorescence intensity (a.u.) for the second.

Compared with “TTAGTAATTAGCCATTGCCCATGCAACCTAAACCAAAACACGGAGTCACCTAGTGCAG”, “AGTAGATTTAGTTCTGTTTTATTTATTGATACTTGCCGATCGGAGTCACCTAGTGCAG” is lower in binding signal: 6580 fluorescence intensity (a.u.) for the first, 5250 fluorescence intensity (a.u.) for the second.

“CTTCGATTGAACAATTAGGTTTGCGCTTGCTTGCCCAAGACGGAGTCACCTAGTGCAG” and “AATATGTCATCTTATGATTATAATTATATGCCAATCCAACCGGAGTCACCTAGTGCAG” are the same in binding signal: 17600 fluorescence intensity (a.u.) for the first, 17600 fluorescence intensity (a.u.) for the second.

First: GACTAAATCAAGTTTAAACAACTTCATTCAAAATTATTCACGGAGTCACCTAGTGCAG
Second: AAATTAGTAATTTATAGTTTAAAATGGGCCATTTTATATGCGGAGTCACCTAGTGCAG
The binding signal of the first is lower: 4880 fluorescence intensity (a.u.) for the first, 15900 fluorescence intensity (a.u.) for the second.

First: CACGTTTAACATAATTTTAGAATTTCAATATAGTTTTGTGCGGAGTCACCTAGTGCAG
Second: TTAAAATTTATATTTACTAAAAGTTCCGTCAAACAGTTTACGGAGTCACCTAGTGCAG
The binding signal of the first is higher: 6790 fluorescence intensity (a.u.) for the first, 4040 fluorescence intensity (a.u.) for the second.

First: GCAAATGGATTGTACAACTATGGAAGGGGCAGGTTCGAGGCGGAGTCACCTAGTGCAG
Second: TAGCATATGATTAATGGAGTATTAATCTCTACTATTATAACGGAGTCACCTAGTGCAG
The binding signal of the first is higher: 5170 fluorescence intensity (a.u.) for the first, 3970 fluorescence intensity (a.u.) for the second.

First: GTATTTATTAATTTCAAATTTCTGAACTATTAAAACAAGACGGAGTCACCTAGTGCAG
Second: CTAATATGTAAATTTGACAACCTCATCTAAGGCACTATTACGGAGTCACCTAGTGCAG
The binding signal of the first is lower: 4380 fluorescence intensity (a.u.) for the first, 4670 fluorescence intensity (a.u.) for the second.

Going from “TACGAATGATGGGGTGATTAGTCCTTATATTTATACACCGCGGAGTCACCTAGTGCAG” to “TTGCTGTGATTCCTGTGTTATCATTGTGTTTGATTTCCCTCGGAGTCACCTAGTGCAG”, the binding signal falls from 11600 fluorescence intensity (a.u.) to 3960 fluorescence intensity (a.u.).

Going from “AAATTGACAGGTGAAAGAGCTGTGATAAAGAAGCAAGCCGCGGAGTCACCTAGTGCAG” to “CTGATTTGCTTGAGTTGTTGATATGCAGGGACAATGTTGTCGGAGTCACCTAGTGCAG”, the binding signal falls from 18100 fluorescence intensity (a.u.) to 14700 fluorescence intensity (a.u.).

Going from “AAGCTGATTGAAGAGAACTCCTCACTGTCAGGCAAACTTTCGGAGTCACCTAGTGCAG” to “TTTGCTCATAAATTTATAAAATTTGTATGATGTTCACGAGCGGAGTCACCTAGTGCAG”, the binding signal falls from 32000 fluorescence intensity (a.u.) to 7280 fluorescence intensity (a.u.).

Compared with “AAGTTAACTCGATCTCGTGTAATTTGCAATACAAGATTTGCGGAGTCACCTAGTGCAG”, “ATCATTACAACAATGTTAAATTGACCAACATACAACACTACGGAGTCACCTAGTGCAG” is higher in binding signal: 3880 fluorescence intensity (a.u.) for the first, 4720 fluorescence intensity (a.u.) for the second.

First: ATGTAACTATAGTGTAATTACACGGTAACTTTTAGTAGATCGGAGTCACCTAGTGCAG
Second: AATAGTAATTATTATTTATATCACTATCATAACGAACAACCGGAGTCACCTAGTGCAG
The binding signal of the first is lower: 13300 fluorescence intensity (a.u.) for the first, 14200 fluorescence intensity (a.u.) for the second.

First: CCGTGCTCAACTACCCAATCACTCCAAATTAAGCTCGCATCGGAGTCACCTAGTGCAG
Second: GGCATGAAATTACATTGAATGATTTCTATGTATTATGTGACGGAGTCACCTAGTGCAG
The binding signal of the first is lower: 3750 fluorescence intensity (a.u.) for the first, 6970 fluorescence intensity (a.u.) for the second.

First: TTGATGTTAAATTTAATGACACTAATTTAGTGTTGTAAATCGGAGTCACCTAGTGCAG
Second: CAAAACTGTCATTTTGTATGATTTCTCTCTCATCAATTGGCGGAGTCACCTAGTGCAG
The binding signal of the first is higher: 22300 fluorescence intensity (a.u.) for the first, 17500 fluorescence intensity (a.u.) for the second.

Going from “TTAACAAATTTGCCACACTTGTGTTTATCAACCAAACACCCGGAGTCACCTAGTGCAG” to “TCTTGTTAATTGGATCACGCCGCACCGCACTTGTCCGTGTCGGAGTCACCTAGTGCAG”, the binding signal rises from 9300 fluorescence intensity (a.u.) to 35300 fluorescence intensity (a.u.).
